The source of these data is publication PMC4336329 (PLoS ONE, 2015).

Out of some 310,000 compounds screened, about 14,000 (4.5%) showed an effect of 50% or more. Effects have a minus sign here. The list shows a part of the results.
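Note: peak tail current of the secondary pulse compared with the same well before compound.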

For this test, the target named is human ether-à-go-go-related gene (hERG) potassium channel (human, UniProt Q12809). In words: primary screen, population patch clamp on CHO cells stably expressing hERG.
Sequence of human ether-à-go-go-related gene (hERG) potassium channel (Q12809 whole entry, looked up): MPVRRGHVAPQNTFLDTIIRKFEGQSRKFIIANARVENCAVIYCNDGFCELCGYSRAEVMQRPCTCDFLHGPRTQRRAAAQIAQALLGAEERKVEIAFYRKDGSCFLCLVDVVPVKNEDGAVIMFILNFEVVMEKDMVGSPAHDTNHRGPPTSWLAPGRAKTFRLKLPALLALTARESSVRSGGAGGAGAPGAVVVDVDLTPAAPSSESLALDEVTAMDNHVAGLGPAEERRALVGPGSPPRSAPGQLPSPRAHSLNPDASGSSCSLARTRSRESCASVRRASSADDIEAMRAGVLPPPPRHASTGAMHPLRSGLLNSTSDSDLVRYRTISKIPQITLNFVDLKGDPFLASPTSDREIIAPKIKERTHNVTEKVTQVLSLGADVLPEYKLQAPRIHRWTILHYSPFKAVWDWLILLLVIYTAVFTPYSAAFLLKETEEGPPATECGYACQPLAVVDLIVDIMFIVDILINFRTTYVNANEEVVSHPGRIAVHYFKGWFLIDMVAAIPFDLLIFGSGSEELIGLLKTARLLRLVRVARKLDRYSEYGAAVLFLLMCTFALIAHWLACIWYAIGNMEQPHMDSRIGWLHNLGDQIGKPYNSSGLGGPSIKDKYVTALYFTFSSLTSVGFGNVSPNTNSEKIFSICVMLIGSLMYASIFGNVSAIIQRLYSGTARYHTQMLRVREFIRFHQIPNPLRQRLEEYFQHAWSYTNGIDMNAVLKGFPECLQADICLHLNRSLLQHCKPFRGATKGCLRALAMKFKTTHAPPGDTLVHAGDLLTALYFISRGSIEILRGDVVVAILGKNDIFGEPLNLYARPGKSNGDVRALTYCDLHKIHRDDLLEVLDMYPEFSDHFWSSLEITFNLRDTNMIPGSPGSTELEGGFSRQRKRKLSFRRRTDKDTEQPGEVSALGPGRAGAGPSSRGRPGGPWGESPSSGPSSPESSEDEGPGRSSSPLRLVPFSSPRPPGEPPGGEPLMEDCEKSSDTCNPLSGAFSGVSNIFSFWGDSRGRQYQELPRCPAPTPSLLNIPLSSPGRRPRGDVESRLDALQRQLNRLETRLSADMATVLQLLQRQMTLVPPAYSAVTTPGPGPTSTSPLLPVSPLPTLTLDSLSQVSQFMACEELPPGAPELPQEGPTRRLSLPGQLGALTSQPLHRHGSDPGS
Regarding `CSCC[C@H](NC(=O)c1nn(C)c(=O)c2ccccc12)c1nc2ccccc2[nH]1`, the “hERG current change (%, negative = inhibition) at 10uM” value is -3.07%. Under `CCc1c(C)nc2c(C)cccc2c1SCCC#N` stands 17.7%; under `Cc1cc(C)c2c(=O)cc(C(=O)NCc3ccccc3)oc2c1`, 3.49%. Under `CC(=O)N1CCN(S(=O)(=O)c2c(F)cc(F)c(Cl)c2F)CC1` stands 4.93%.

With `O=C(CCn1ccc([N+](=O)[O-])n1)Nc1nccs1`, the “hERG current change (%, negative = inhibition) at 10uM” value is on record as 21.8%.

Turning to `CC(=O)C1CCN(Cc2ccccc2)CC1`, the “hERG current change (%, negative = inhibition) at 10uM” value amounted to 20.5%. Then `COc1ccc(Cl)cc1NC(=O)COC(=O)C1CC1`, with -0.403%. Then `O=C(NCc1ccc(Cl)cc1)C1CCC(=O)N(C2CC2)C1` (stereo not shown), with -4.23%.

With `NC(N)=NS(=O)(=O)c1ccc(NC(=S)NC(=O)/C=C/c2ccco2)cc1`, the “hERG current change (%, negative = inhibition) at 10uM” value came to 5.99%. Then `N#Cc1c(NC(=O)CSc2nnnn2C2CCCC2)sc2c1CCCC2`, with -20.9%; and `O=C(COc1ccc(S(=O)(=O)NC2CCCCC2)cc1)NCc1ccccn1`, with -10.9%. Under `COC(=O)c1cn(NC(=O)c2ccc3c(c2)OCO3)c(=O)c2ccccc12` stands 8.31%; under `O=c1[nH]c2ccsc2c(=O)n1-c1ccc(F)c(Cl)c1`, 0.659%; under `Cn1c(=O)cc(SCC(=O)Nc2cccnc2)c2ccccc21`, -5.09%. Under `COc1ccc(N(C)S(=O)(=O)c2ccc(Cl)c(C(=O)NCCc3ccc(Cl)cc3)c2)cc1` stands -15.9%; under `COc1ccc(S(=O)(=O)N2CCSC2c2ccccc2)cc1` (stereo not shown), -13.6%; under `O=C(c1ccccc1)N1CCCC(C(=O)N2CCc3ccccc3C2)C1` (stereo not shown), -2%. Take `O=C(CN1C(=O)/C(=C\c2cccc(Cl)c2)Sc2ccccc21)NCCCN1CCOCC1`: the “hERG current change (%, negative = inhibition) at 10uM” value is reported as -44.8%. For the compound `Cc1ccc(C)c(NC(=S)N2CCC(NC(=O)c3ccccc3)CC2)c1`, the “hERG current change (%, negative = inhibition) at 10uM” value worked out at 15.1%. Under `CC1(C)C2CCC1(CS(=O)(=O)NCc1ccc(Cl)cc1Cl)C(=O)C2` (stereo not shown) stands -23.4%; under `S=C(c1ccc(N2CCOCC2)cc1)N1CCCCC1`, 17.7%.

Regarding `COc1ccc(C(CNC(=O)c2cccc(S(=O)(=O)N(C)c3ccccc3)c2)N2CCCC2)cc1` (stereo not shown), the “hERG current change (%, negative = inhibition) at 10uM” value is given as -60.2%. For the compound `C[N+](C)(C)CCc1ccc(O)cc1.[I-]`, the “hERG current change (%, negative = inhibition) at 10uM” value stood at 15.4%. As to `Clc1cccc(OCc2nc(-c3ccncc3)n[nH]2)c1`, the “hERG current change (%, negative = inhibition) at 10uM” value was -15.1%. Take `O=C(/C=C/c1cccs1)c1ccc(NC(=O)c2ccccc2F)cc1`: the “hERG current change (%, negative = inhibition) at 10uM” value is given as -7.8%.

`COc1ccccc1CNCc1ccc(C)cc1.O=C(O)C(=O)O`: the “hERG current change (%, negative = inhibition) at 10uM” value is -6.14%. Under `O=C1CCc2cc(S(=O)(=O)NC(Cc3ccccc3)C(=O)NC3CCCCC3)ccc2N1` (stereo not shown) stands 2.47%.

As to `O=C(COC(=O)c1cc(S(=O)(=O)N2CCOCC2)cs1)c1ccccc1`, the “hERG current change (%, negative = inhibition) at 10uM” value is -0.734%. Then `CC(C)c1ccc(NC(=S)NN2CCN(C)CC2)cc1`, with -4.46%; and `Cc1cc(/C=N/NC(=O)c2cccnc2)c(C)n1CC(C)C`, with 5.33%.

Consider `CC(C)CCNC(=O)c1cn(CC(C)C)c(=O)c2c1c1ccccc1n2C`, for which the “hERG current change (%, negative = inhibition) at 10uM” value is 22.2%.

For the compound `CN1CCOc2ccc(S(=O)(=O)NCCc3ccc(Cl)cc3)cc21`, the “hERG current change (%, negative = inhibition) at 10uM” value is -3.9%. Regarding `COc1ccccc1OCc1ccc(C(=O)NCC2CCCO2)cc1` (stereo not shown), the “hERG current change (%, negative = inhibition) at 10uM” value is reported as 7.65%. Then `COc1cccc(NC(=S)N(CCN2CCCCC2)Cc2ccco2)c1`, with -43.9%; and `CC(NC1CCCC1)c1ccccc1` (stereo not shown), with -2.83%; and `COC(=O)c1cc(OC)c(OC)cc1NC(=O)c1ccco1`, with 2.59%. Then `Cc1ccc(Oc2nc3ccccc3n3cccc23)cc1`, with -10.1%. Under `COC(=O)[C@@]12CCCCN1[C@H](c1ccc(SC3CCCCC3)cc1)[C@H]1C(=O)N(C)C(=O)[C@H]12.O=C(O)C(F)(F)F` stands -1.98%. For `Cc1ccsc1C(=O)N1CCN(S(=O)(=O)c2cccs2)CC1`, the “hERG current change (%, negative = inhibition) at 10uM” value is on record as 8.87%. Under `CCC(=NCc1ccc2c(c1)OCO2)c1c(O)n(C)c(=O)n(C)c1=O` stands 1.45%. Then `COc1cccc(/C=N/N2CCN(C3c4ccccc4-c4ccccc43)CC2)c1O`, with 10.2%; and `Cc1cccc(C(O)(C(=O)NNC(=O)CN2CCN(C)CC2)c2cccc(C)c2)c1`, with -3.69%; and `O=C(Cc1ccc2ccccc2c1)Nc1ccccc1Br`, with 9.63%.

With `COc1cc(NC(=O)c2ccc([N+](=O)[O-])o2)ccc1NC(=O)c1cccs1`, the “hERG current change (%, negative = inhibition) at 10uM” value is listed as -30.2%. Under `Cc1nc2ccc(C(C(F)(F)F)(C(F)(F)F)C(F)(F)F)cc2[nH]1` stands -29.7%.

As to `CC(OC(=O)CNC(=O)c1ccc(Cl)c(Cl)c1)C(=O)N1CCOCC1` (stereo not shown), the “hERG current change (%, negative = inhibition) at 10uM” value was -0.57%. For the compound `CCN(CC)S(=O)(=O)c1ccc2c(c1)c(=O)c(C(=O)NCCCN(C)c1ccccc1)cn2C`, the “hERG current change (%, negative = inhibition) at 10uM” value is listed as -12.2%. Then `Cc1cc(CNC(=O)COc2ccc(F)cc2F)c2ccccc2n1`, with -27.8%. For the compound `COc1ccccc1CNC(=O)C(NS(=O)(=O)c1ccc2c(c1)oc(=O)n2C)C(C)C` (stereo not shown), the “hERG current change (%, negative = inhibition) at 10uM” value is on record as -2.23%. As for `COc1ccccc1N1CCN(C(=O)COc2cc(C)cc(C)c2)CC1`, the “hERG current change (%, negative = inhibition) at 10uM” value worked out at 10.8%. Under `C=CCN1C(=O)c2ccc(C(=O)OCC(=O)N(C)C3CCCCC3)cc2C1=O` stands -4.24%; under `CCC(C)NC(=O)CCc1nc2ccccc2n1-c1ccccc1` (stereo not shown), 2.77%; under `CCN(c1cccc(C)c1)S(=O)(=O)c1ccc2c(c1)CCN2C(C)=O`, 1.61%.

Consider `CN(C)C(=O)CSc1cccc2cccnc12`, for which the “hERG current change (%, negative = inhibition) at 10uM” value came to 0.597%. Then `CCn1cc(C(=O)N[C@@H](CCSC)C(=O)NCCCO)c(=O)c2cc3c(cc21)OCO3`, with 18.4%. With `O=C(Nc1ccc2c(c1)OCO2)Nc1ccc(F)cc1F`, the “hERG current change (%, negative = inhibition) at 10uM” value worked out at 21%. On to `Cc1cc(F)ccc1NC(=O)CCCN(C)S(=O)(=O)c1ccc(F)cc1`, for which the “hERG current change (%, negative = inhibition) at 10uM” value is reported as -5.3%. Then `CCC1(CCc2ccncc2)C(=O)NC(=O)NC1=O`, with -4.69%; and `COc1ccccc1C(c1nnnn1CC1CCCO1)N1CCN(c2ccccc2)CC1` (stereo not shown), with 12%. Then `CCc1cc2cc(C)cc(C)c2nc1SCC(=O)N1CCCC1`, with 15.4%. Under `O=C(CC1Sc2ncnn2C1=O)Nc1ccc(Br)cc1` (stereo not shown) stands 2.01%; under `COCC(=O)N1CCCC(N(C)CCc2ccc(OC)c(OC)c2)C1` (stereo not shown), 8.28%. As for `Cc1c(C(=O)NCc2ccccn2)oc2ccccc12`, the “hERG current change (%, negative = inhibition) at 10uM” value stood at 8.09%. Under `O=C(CO/N=C/c1ccc2c(c1)OCO2)Nc1cccc(Br)c1` stands -3.9%; under `COc1cc(OC)c(S(=O)(=O)Nc2ccccc2N2CCCCC2)cc1NC(C)=O`, 18.8%.

As for `O=C1c2cccc3cccc(c23)C(=O)N1OS(=O)(=O)c1ccc(Br)cc1`, the “hERG current change (%, negative = inhibition) at 10uM” value amounted to 24.2%. Then `Cc1nn(Cc2ccccc2)c(Cl)c1/C=C/C(=O)OCC(=O)N(C)C1CCS(=O)(=O)C1` (stereo not shown), with -12.4%; and `O=C(NCc1ccco1)c1ccccc1NS(=O)(=O)c1ccc(Br)s1`, with -6.34%. On to `C[C@H]1C(=O)N(C)CCN1Cc1cn(C)nc1-c1ccc(Oc2ccccc2)cc1`, for which the “hERG current change (%, negative = inhibition) at 10uM” value was -4.92%. Under `O=C(CN1C(=O)c2ccccc2S1(=O)=O)c1ccc(F)c(F)c1` stands 4.19%. Then `COC(=O)c1ccccc1NC(=O)c1cc(C)no1`, with 17%; and `CCC(C)[C@H](NC(=O)[C@H](Cc1ccccc1)n1c(=O)[nH]c2ccccc2c1=O)C(=O)NCC1CCC(C(=O)O)CC1` (stereo partly shown), with 20.4%. As to `O=C/C=C/c1coc2ccc3ccccc3c2c1=O`, the “hERG current change (%, negative = inhibition) at 10uM” value is reported as 11.4%. On to `O=C(CSc1nc2ccccc2o1)NC1CCCC1`, for which the “hERG current change (%, negative = inhibition) at 10uM” value was 16.5%. As to `S=C(NCc1ccncc1)Nc1ccccc1`, the “hERG current change (%, negative = inhibition) at 10uM” value is -6.19%. As for `Cc1ccc(C(=O)Nc2cccnc2Cl)cc1Cl`, the “hERG current change (%, negative = inhibition) at 10uM” value is 7.74%. As for `O=C(NNc1c2ccccc2nc2ccccc12)c1cccc(O)c1`, the “hERG current change (%, negative = inhibition) at 10uM” value was determined as 6.93%. Under `NC(=O)CSc1nc2ccccc2c(=O)n1CCc1ccccc1` stands 8.93%; under `O=C(c1cccc(NS(=O)(=O)c2cccc([N+](=O)[O-])c2)c1)N1CCOCC1`, 24.3%. Then `CC(C)CNC(=O)c1cccc(NC(=O)COc2ccc([N+](=O)[O-])cc2)c1`, with -57.4%; and `Cc1cccc(C(=O)O/N=C(\N)Cc2ccc([N+](=O)[O-])cc2)c1`, with -64.3%. Under `Cc1cccc(C(=O)OCC(=O)NCCCc2ccccc2)c1O` stands 9.15%. Take `COc1ccc(NC(=O)c2cn(CCC#N)nc2-c2ccc(OC)c(OC)c2)cc1`: the “hERG current change (%, negative = inhibition) at 10uM” value is reported as -1.61%. Then `CC(=O)Nc1ccc(NC(=O)C(C)OC(=O)/C=C/c2cccs2)cc1` (stereo not shown), with -31.7%; and `COc1ccccc1-c1nnc2sc(-c3ccc(N(C)C)cc3)nn12`, with -11%. Then `CC(C)(Oc1ccc(Cl)cc1)C(=O)NNC(=O)c1ccc(Br)o1`, with -20.1%; and `O=C(CCn1c(=S)oc2ccccc21)Nc1cccc(O)c1`, with 21.2%; and `C=C(C)CN1CCN(S(=O)(=O)c2ccc(C)c(N(C)S(=O)(=O)c3ccc(C)cc3)c2C)CC1`, with -2.33%.
